The whole screen tested about 380,000 compounds, of which about 4,000 (1.1%) were called active. Inconclusive means that the source gave no clear call. Such entries were picked first, then a sample of the others. Calls come from the whole dose curve; as a rule, active = well fitted activation curve with a large enough effect; inconclusive = small, poorly fitted or top-dose-only effect; inactive = no such curve, though single readings can be large or run the other way. Potencies beside an inconclusive call are fits to weak or partial responses and may not hold up.
Experiment: qHTS Assay to Identify Small Molecule Activators of BRCA1 Expression; note: nearly all actives have a fitted effect of over 80% in size
Conditions: MCF7-BRCA1-FFLuc reporter, luminescence, 48 h; activation: at 46.1 µM (top of the series), scaled: vehicle 0%, 10 µM genistein 100% unless noted
Procedure, shortened: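 Quantitative HTS in MCF7 cells stably reporting BRCA1 expression via firefly luciferase. Compound treatment lasts 48 h at 37 °C in phenol-red free MEM. Activation is expressed relative to genistein at 10 microM and DMSO.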
Potency is the fitted concentration of half-maximal effect; tags give direction and shape of the fitted curve.

Row | SMILES | Potency | activation
1 | Cc1nc(-c2ccc([N+](=O)[O-])cc2)nc2[nH]ccc(=O)c12 | inconclusive: 1 µM [activator, full curve, poor fit] | 
2 | Cc1ccc(C(=O)N/N=C\c2sccc2C)cn1 | inconclusive: 11.2 µM [activator, partial curve, poor fit] | 
3 | C#CCN(C[C@@H]1[C@@H](OC(=O)NCCCCCC)[C@@H](OC(=O)NCCCCCC)Cn2c(=O)ccc(=O)n21)S(=O)(=O)c1ccc(C)cc1 | inactive | 
4 | Cc1nc2cc(NS(=O)(=O)c3cccc4cccnc34)ccc2s1 | inactive | 
5 | Nc1cc(N)nc(SCC(=O)Nc2ccc(Br)cc2Cl)n1 | inconclusive: 20 µM [activator, partial curve, poor fit] | 
6 | COc1ccc2nc3oc(C(=O)N4CCC(C(N)=O)CC4)cc3cc2c1 | inconclusive: 14.1 µM [activator, partial curve, poor fit] | 
7 | NS(=O)(=O)c1cccc(NC(=O)/C=C/c2cccs2)c1 | inconclusive: 31.6 µM [activator, single point] | 
8 | Cc1cc(NC(=O)/C=C/c2ccccc2Cl)no1 | inconclusive: 15.8 µM [activator, single point] | 
9 | COc1ccc(NC(=S)NC(=O)c2ccc(Br)o2)cc1 | active: 6.31 µM | 
10 | CCS(=O)(=O)N1CCCc2cc(C(=O)Nc3cccc(C(C)=O)c3)ccc21 | inactive | 
11 | Nc1cc(Cl)ccc1C(=O)OCC(=O)N1CCCCCC1 | inconclusive: 8.91 µM [activator, partial curve, poor fit] | 
12 | Cc1cc(CN2CCCC(C(=O)Nc3ccc(-c4nc5ccccc5[nH]4)cc3)C2)n[nH]1 (stereo not drawn) | inconclusive: 14.1 µM [activator, partial curve, poor fit] | 
13 | Cc1cccc(C)c1NC(=O)CN1CCCC1 | inactive | 
14 | CC(=O)c1c(C)[nH]c(C(=O)OCc2ccccc2)c1C | inconclusive: 2.51 µM [activator, partial curve, poor fit] | 
15 | C[C@H](NC(=O)c1nc[nH]c1C(=O)N[C@@H](Cc1ccccc1)C(=O)OC(C)(C)C)c1ccccc1 | inactive | 
16 | CCn1c(OC)nc2c1c(=O)n(C)c(=O)n2C | inactive | 
17 | Cc1ccccc1NC(=O)Cc1nc(COC(=O)c2ccc(S(C)(=O)=O)c([N+](=O)[O-])c2)cs1 | inactive | 
18 | O=C(Nc1ccc2c(c1)OCCO2)c1ccc(Cl)cc1 | inconclusive: 3.16 µM [activator, partial curve, poor fit] | 
19 | COc1cccc(NC(=O)c2ccc3c(c2)OCO3)c1 | inconclusive: 0.631 µM [activator, full curve, poor fit] | 
20 | CCOc1ccccc1NC(=O)CSc1nnnn1Cc1ccccc1 | inactive | 
21 | Cc1nc2cc(Nc3nnc(-c4ccccc4)c4ccccc34)ccc2n1C | active: 4.47 µM | 
22 | O=[N+]([O-])c1cc(/C=N/O)ccc1Oc1ccccc1Cl | active: 7.08 µM | 
23 | CN1OC[C@@H]2CN(C(=O)C(C)(C)C)[C@H](c3ccc(-c4cc5ccccc5o4)cc3)C[C@@H]21 | inactive | 
24 | Cc1cc(C(=O)CSc2nc3ccccc3o2)c(C)n1C1CC1 | inconclusive: 2.82 µM [activator, full curve, poor fit] | 
25 | COc1ccc(NC(=O)Nc2nnc(-c3cccs3)s2)cc1 | inconclusive: 2 µM [activator, full curve, poor fit] | 

Row | SMILES | Potency | activation
26 | Cc1cc(C)c2c(N)c(C(=O)Nc3ccc(F)cc3)sc2n1 | inconclusive: 0.631 µM [activator, full curve, poor fit] | 
27 | O=C(c1ccc(F)cc1)N(Cc1cccs1)C1CCS(=O)(=O)C1 (stereo not drawn) | inactive | 
28 | CCN(CC)CCNC(=O)C1CCN(C(=O)c2cnn(-c3ccccc3)c2-n2cccc2)CC1 | inconclusive: 10 µM [activator, partial curve, poor fit] | 
29 | COc1ccc(CCn2nc(C)c([N+](=O)[O-])c2C)cc1 | active: 8.91 µM | 
30 | CCOC(=O)c1cn2nc(Oc3ccccc3)ccc2n1 | inconclusive: 1.41 µM [activator, full curve, poor fit] | 
31 | CCOC(=O)c1ccc(-c2ccc(C=O)o2)cc1 | inconclusive: 1.58 µM [activator, partial curve, poor fit] | 
32 | Cc1ccc2c(c1)N(C(=O)CCC(=O)NC1CCC(C)CC1)CCO2 (stereo not drawn) | inactive | 
33 | CCn1cc(C(=O)Nc2ccc(F)c(F)c2)cn1 | inconclusive: 10 µM [activator, partial curve, poor fit] | 
34 | CC(=O)Nc1ccc(/C=C/c2noc(-c3ccccc3O)n2)cc1 | inconclusive: 1.58 µM [activator, partial curve, poor fit] | 
35 | O=C(Nc1ccccc1F)C1CCCN(S(=O)(=O)c2ccccc2)C1 (stereo not drawn) | inactive | 
36 | O=C(Cc1ccc(-n2cccc2)cc1)NCc1ccccc1Cl | inactive | 
37 | Cn1c2ccccc2c(=O)c2ccc(C#CC3(O)CCCCC3)cc21 |  | inconclusive: -43.9% [activator]
38 | Cc1ccc(SCCNC(=O)c2ccc(C)c(S(=O)(=O)Nc3ccccc3C)c2)cc1 | inactive | 
39 | C=CCN=c1scc(C)n1/N=C/c1ccc(O)c(O)c1 | inconclusive: 7.94 µM [activator, partial curve, poor fit] | 
40 | CCOC(=O)C1CCCN(C(=O)CC(C)c2ccccc2)C1 (stereo not drawn) | active: 12.6 µM | 
41 | COc1cc(-c2nc3ccc(C)cn3c2NCc2ccccc2)ccc1-c1cccc(Cl)c1 | inactive | 
42 | O=C(NCc1ccc(Cl)cc1)c1noc2c1CCCCC2 | inconclusive: 35.5 µM [activator, single point] | 
43 | O=C(C1=C[C@H](c2ccccc2)C[C@H](OCc2ccc(CO)cc2)O1)N1CCN(Cc2ccc3c(c2)OCO3)CC1 | inactive | 
44 | Cc1ccc(SCC(=O)Nc2ccc(N3CCN(C)CC3)c(F)c2)cc1 | inconclusive: 7.94 µM [activator, partial curve, poor fit] | 
45 | C/C(N)=C(/C#N)C(=O)CSc1ccc2c(c1)OCCO2 | inconclusive: 2.82 µM [activator, full curve, poor fit] | 
46 | O=C(CSC1=NCCS1)Nc1nc2ccccc2s1 | active: 8.91 µM | 
47 | O=C(Nc1ccsc1C(=O)O)c1cccc(Oc2ccccc2)c1 | inconclusive: 1 µM [activator, full curve, poor fit] | 
48 | CCC(C)c1ccc(NC(=O)N2CCOCC2)cc1 (stereo not drawn) | active: 10 µM | 
49 | Cc1nc(-c2cccc(C(F)(F)F)c2)sc1C(=O)O | inconclusive: 10 µM [activator, partial curve, poor fit] | 
50 | CC1CCN(c2oc(-c3ccccc3Cl)nc2C#N)CC1 | active: 6.31 µM | 

Row | SMILES | Potency | activation
51 | CCCCNC(=O)CCC(=O)Nc1ccc2nc(N3CCOCC3)cc(C)c2c1 | active: 3.98 µM | 
52 | O=C(O)c1cccc(NC2=C(n3nnc4ccccc43)C(=O)c3ccccc3C2=O)c1 | inconclusive: 10 µM [activator, partial curve, poor fit] | 
53 | Cc1ccccc1Nc1nc(N)c2ccccc2n1 | inconclusive: 0.631 µM [activator, full curve, poor fit] | 
54 | O=C(c1ccc(-c2ccccc2Cl)s1)N1CCOCC1 | inconclusive: 35.5 µM [activator, partial curve, poor fit] | 
55 | COc1cccc(N2CCN(c3cnc4ccccc4n3)CC2)c1 | active: 2 µM | 
56 | COc1ccccc1-c1noc(-c2ccncc2)n1 | inconclusive: 11.2 µM [activator, partial curve, poor fit] | 
57 | Cc1csc(NC(=O)CSc2nnc(-c3ccncc3)o2)n1 | inconclusive: 17.8 µM [activator, single point] | 
58 | Cc1cccc(NC(=O)CSc2nccn2Cc2ccco2)c1 | inconclusive: 15.8 µM [activator, partial curve, poor fit] | 
59 | Clc1ccc(/C=C/c2ncc[nH]2)c(Cl)c1 | inconclusive: 2 µM [activator, full curve, poor fit] | 
60 | Cc1ccc(S(=O)(=O)N2CCN(c3nc(-c4cccnc4)nc4ccccc34)CC2)cc1 | inactive | 
61 | c1ccc(N2CCN(c3cnccn3)CC2)nc1 | inconclusive: 31.6 µM [activator, single point] | 
62 | N#CC1=C(N)Oc2cc(O)ccc2C1c1cccnc1 (stereo not drawn) | inactive | 
63 | O=C(COc1ccccc1[N+](=O)[O-])Nc1ccc2c(c1)CCC2 | active: 10 µM | 
64 | CCCCCCc1nnc(NC(=O)c2ccco2)s1 | inconclusive: 12.6 µM [activator, partial curve, poor fit] | 
65 | Cc1onc(-c2ccccc2)c1C(=O)N/N=C/c1ccco1 | inactive | 
66 | O=[N+]([O-])c1nn(-c2ccc3c(c2)OCCO3)n(O)c1=NCc1ccc(F)cc1Cl | inconclusive: 1.78 µM [activator, full curve, poor fit] | 
67 | O=[N+]([O-])c1ccc(CSc2nc3ccccc3[nH]2)cc1 | active: 3.98 µM | 
68 | O=C(Nc1cnn(Cc2ccccc2)c1)c1nc2ncccn2n1 | inconclusive: 10 µM [activator, partial curve, poor fit] | 
69 | Cc1cc(C(F)(F)F)nc(SCC(=O)c2cccc([N+](=O)[O-])c2)n1 | inconclusive: 3.16 µM [activator, partial curve, poor fit] | 
70 | COc1cc(N=Nc2ccc3ccccc3c2)ccc1O | active: 5.01 µM | 
71 | CCOC(=O)c1ccc2nc(Nc3nc4ccc(F)cc4s3)sc2c1 |  | inconclusive: -94.5% [activator]
72 | COc1ccccc1C(=O)NCCC(=O)NC1CCC(C)CC1 (stereo not drawn) | active: 8.91 µM | 
73 | CN1CCN(c2ccc(NC(=O)c3cc4ccccc4o3)cc2)CC1 | inconclusive: 1.12 µM [activator, full curve, poor fit] | 
